The supplement of paper PMC7125110
± gives the standard error. This sample is rich in variants without activity.

B1: glmS ribozyme (parent)
chain: AUAAAAGCGCCAGAACUACAGAAAUGUAGUUGACGAGGAGGAGGUUUAUCGAAUUUUCGGCGGAUGCCUCCAAA

Columns and labels:
Details in all cases: with glucosamine-6-phosphate
glucosamine-6-phosphate [1] = variants of: B1; assay: self-cleavage kobs at 40 uM GlcN6P; higher = faster cleavage; RNA array
In short: (§1)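 Using a hybridised Cy3 probe at 37 °C, barcoded ribozyme variants transcribed in situ by E. coli RNA polymerase on sequenced MiSeq chips were monitored across tiles imaged over ~14 h. The flow contained glucosamine-6-phosphate from 40 μM to 10 mM in HEPES/KCl/Mg(OAc)2 buffer. Signals were normalised to baseline and to non-cleaving reference variants before per-tile medians were fit to one- or two-exponential decays to yield kobs. Weighted Michaelis–Menten fits across concentrations gave kcat and KM.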

glucosamine-6-phosphate [2] = variants of: B1; assay: self-cleavage kobs at 640 uM GlcN6P; higher = faster cleavage; RNA array
In short: as §1

glucosamine-6-phosphate [3] = variants of: B1; assay: self-cleavage kobs at 160 uM GlcN6P; higher = faster cleavage; RNA array
In short: as §1

glucosamine-6-phosphate [4] = variants of: B1; assay: self-cleavage kobs at 10000 uM GlcN6P; higher = faster cleavage; RNA array
In short: as §1

glucosamine-6-phosphate [5] = variants of: B1; assay: self-cleavage kobs at 2500 uM GlcN6P; higher = faster cleavage; RNA array
In short: as §1

Variant	self-cleavage kobs at 40 uM GlcN6P (glucosamine-6-phosphate [1])	self-cleavage kobs at 640 uM GlcN6P (glucosamine-6-phosphate [2])	self-cleavage kobs at 160 uM GlcN6P (glucosamine-6-phosphate [3])	self-cleavage kobs at 10000 uM GlcN6P (glucosamine-6-phosphate [4])	self-cleavage kobs at 2500 uM GlcN6P (glucosamine-6-phosphate [5])
U47C A48G C50G C70G	3.16e-05 ± 1.6e-05 s⁻¹	–	–	–	–
A53U G60C U69C	< 1e-05 s⁻¹	–	–	–	–
C50U G59A G60A	< 1e-05 s⁻¹	< 1e-05 s⁻¹	< 1e-05 s⁻¹	–	–
U49A C58A	< 1e-05 s⁻¹	< 1e-05 s⁻¹	< 1e-05 s⁻¹	–	–
A52U C68A	< 1e-05 s⁻¹	–	–	–	–
A52C C71U	< 1e-05 s⁻¹	–	–	–	–
A48U G63U C68U C70G	< 1e-05 s⁻¹	–	–	–	–
A48U C67G	< 1e-05 s⁻¹	–	–	4.58e-05 ± 8.4e-06 s⁻¹	–
U55G C68A C71U	< 1e-05 s⁻¹	–	–	–	–
U49A C50G C68G	9.07e-05 ± 3.4e-05 s⁻¹	–	–	–	–
A53U C58U	< 1e-05 s⁻¹	–	–	–	–
U49C G63U	< 1e-05 s⁻¹	< 1e-05 s⁻¹	–	< 1e-05 s⁻¹	< 1e-05 s⁻¹
U57G C68G	2.48e-05 ± 1.2e-05 s⁻¹	4.72e-05 ± 1.4e-05 s⁻¹	4.02e-05 ± 1.5e-05 s⁻¹	–	5.88e-05 ± 1.3e-05 s⁻¹
U49C G66C	< 1e-05 s⁻¹	< 1e-05 s⁻¹	< 1e-05 s⁻¹	< 1e-05 s⁻¹	–
U49C G66U	< 1e-05 s⁻¹	< 1e-05 s⁻¹	–	< 1e-05 s⁻¹	< 1e-05 s⁻¹
C50A G62U C71U	< 1e-05 s⁻¹	–	–	–	–
U47C G51C	< 1e-05 s⁻¹	–	< 1e-05 s⁻¹	–	< 1e-05 s⁻¹
A53G U54C	0.000508 ± 7.8e-05 s⁻¹	–	–	–	–
U47G G62A U65G	< 1e-05 s⁻¹	–	–	< 1e-05 s⁻¹	< 1e-05 s⁻¹
U55C A64U	< 1e-05 s⁻¹	–	–	–	–
A48U U57A	< 1e-05 s⁻¹	< 1e-05 s⁻¹	–	< 1e-05 s⁻¹	< 1e-05 s⁻¹
U55C C61G	< 1e-05 s⁻¹	–	–	–	–
C50U U55C	< 1e-05 s⁻¹	–	< 1e-05 s⁻¹	–	–
G51A G63A	< 1e-05 s⁻¹	–	< 1e-05 s⁻¹	< 1e-05 s⁻¹	< 1e-05 s⁻¹
A52C C67G	< 1e-05 s⁻¹	–	–	–	–

Variant	self-cleavage kobs at 40 uM GlcN6P (glucosamine-6-phosphate [1])	self-cleavage kobs at 640 uM GlcN6P (glucosamine-6-phosphate [2])	self-cleavage kobs at 160 uM GlcN6P (glucosamine-6-phosphate [3])	self-cleavage kobs at 10000 uM GlcN6P (glucosamine-6-phosphate [4])	self-cleavage kobs at 2500 uM GlcN6P (glucosamine-6-phosphate [5])
A52C C58G G62U C71U	< 1e-05 s⁻¹	–	–	–	< 1e-05 s⁻¹
A53G G60C	< 1e-05 s⁻¹	–	–	< 1e-05 s⁻¹	–
G51C U65A	< 1e-05 s⁻¹	< 1e-05 s⁻¹	< 1e-05 s⁻¹	< 1e-05 s⁻¹	–
U49G C61U	< 1e-05 s⁻¹	–	< 1e-05 s⁻¹	–	–
A53U G62C	< 1e-05 s⁻¹	< 1e-05 s⁻¹	–	< 1e-05 s⁻¹	< 1e-05 s⁻¹
A53U G62A	< 1e-05 s⁻¹	–	< 1e-05 s⁻¹	< 1e-05 s⁻¹	< 1e-05 s⁻¹
U55A G60U	< 1e-05 s⁻¹	–	< 1e-05 s⁻¹	–	–
C50U G62C	< 1e-05 s⁻¹	< 1e-05 s⁻¹	–	< 1e-05 s⁻¹	< 1e-05 s⁻¹
U55G G60A	< 1e-05 s⁻¹	–	–	–	–
A53C G60U	< 1e-05 s⁻¹	< 1e-05 s⁻¹	< 1e-05 s⁻¹	–	–
A48G U69A	< 1e-05 s⁻¹	–	–	–	–
U57C G63U	< 1e-05 s⁻¹	< 1e-05 s⁻¹	< 1e-05 s⁻¹	< 1e-05 s⁻¹	< 1e-05 s⁻¹
A52G C68U	2.35e-05 ± 7.7e-06 s⁻¹	0.00015 ± 1.7e-05 s⁻¹	9.18e-05 ± 1.1e-05 s⁻¹	0.000858 ± 9.2e-05 s⁻¹	0.000377 ± 4e-05 s⁻¹
A53G G59C	< 1e-05 s⁻¹	< 1e-05 s⁻¹	< 1e-05 s⁻¹	< 1e-05 s⁻¹	–
A52C U55A	< 1e-05 s⁻¹	–	–	–	–
U57A U65C	< 1e-05 s⁻¹	< 1e-05 s⁻¹	–	–	–
G51C A53C U57G	< 1e-05 s⁻¹	–	–	< 1e-05 s⁻¹	–
C50G G59A	4.42e-05 ± 2.2e-05 s⁻¹	–	8.57e-05 ± 2.1e-05 s⁻¹	–	–
A53U C70U	0.000741 ± 6.7e-05 s⁻¹	0.00682 ± 0.0013 s⁻¹	0.00102 ± 0.00023 s⁻¹	0.0335 ± 0.0084 s⁻¹	0.00471 ± 0.0013 s⁻¹
A52U G59C	< 1e-05 s⁻¹	< 1e-05 s⁻¹	–	< 1e-05 s⁻¹	< 1e-05 s⁻¹
U54A G59A	< 1e-05 s⁻¹	–	–	–	–
A53G U57G	< 1e-05 s⁻¹	–	–	–	–
U54G U55G	0.00108 ± 0.00018 s⁻¹	0.00673 ± 0.0015 s⁻¹	0.00148 ± 0.00028 s⁻¹	–	0.0105 ± 0.0029 s⁻¹
U56G G63A	< 1e-05 s⁻¹	–	–	< 1e-05 s⁻¹	–
A52G A64G	2.83e-05 ± 7.3e-06 s⁻¹	–	–	–	–

Variant	self-cleavage kobs at 40 uM GlcN6P (glucosamine-6-phosphate [1])	self-cleavage kobs at 640 uM GlcN6P (glucosamine-6-phosphate [2])	self-cleavage kobs at 160 uM GlcN6P (glucosamine-6-phosphate [3])	self-cleavage kobs at 10000 uM GlcN6P (glucosamine-6-phosphate [4])	self-cleavage kobs at 2500 uM GlcN6P (glucosamine-6-phosphate [5])
C50U G60A	< 1e-05 s⁻¹	–	–	< 1e-05 s⁻¹	–
G51C U54A	< 1e-05 s⁻¹	–	–	–	–
A48U G51A G62A	< 1e-05 s⁻¹	–	–	–	–
U54A C67U	0.000285 ± 9.7e-05 s⁻¹	0.00116 ± 0.00032 s⁻¹	0.000312 ± 9.1e-05 s⁻¹	0.00584 ± 0.0013 s⁻¹	0.00976 ± 0.0027 s⁻¹
U55C G62A	< 1e-05 s⁻¹	< 1e-05 s⁻¹	< 1e-05 s⁻¹	–	< 1e-05 s⁻¹
A48U C58G	< 1e-05 s⁻¹	–	–	< 1e-05 s⁻¹	–
U54G C61G	< 1e-05 s⁻¹	–	–	–	–
A53C G62A	< 1e-05 s⁻¹	–	–	–	–
U54C C71A	0.000112 ± 1.4e-05 s⁻¹	0.00133 ± 0.00019 s⁻¹	0.000296 ± 4.1e-05 s⁻¹	0.0039 ± 0.00049 s⁻¹	0.00192 ± 0.00026 s⁻¹
U54C G62A	< 1e-05 s⁻¹	–	–	< 1e-05 s⁻¹	–
U57G G59C	< 1e-05 s⁻¹	< 1e-05 s⁻¹	–	< 1e-05 s⁻¹	–
A52C C61G	< 1e-05 s⁻¹	< 1e-05 s⁻¹	–	–	–
A48G C67U	< 1e-05 s⁻¹	–	–	–	–
A48C G60A	< 1e-05 s⁻¹	< 1e-05 s⁻¹	–	< 1e-05 s⁻¹	< 1e-05 s⁻¹
A48C G60U	< 1e-05 s⁻¹	< 1e-05 s⁻¹	< 1e-05 s⁻¹	< 1e-05 s⁻¹	< 1e-05 s⁻¹
G51A U55A	< 1e-05 s⁻¹	< 1e-05 s⁻¹	< 1e-05 s⁻¹	–	–
U47G A53G	0.000319 ± 4.7e-05 s⁻¹	–	–	–	–
A52U U65A	< 1e-05 s⁻¹	< 1e-05 s⁻¹	–	2.95e-05 ± 9.7e-06 s⁻¹	–
A52C G59C	< 1e-05 s⁻¹	< 1e-05 s⁻¹	< 1e-05 s⁻¹	–	–
G51C A64G	< 1e-05 s⁻¹	< 1e-05 s⁻¹	< 1e-05 s⁻¹	< 1e-05 s⁻¹	–
C58A A64U	< 1e-05 s⁻¹	–	–	< 1e-05 s⁻¹	< 1e-05 s⁻¹
A53U G66A C67U	7.59e-05 ± 1.6e-05 s⁻¹	–	–	–	–
A48G U65G	< 1e-05 s⁻¹	–	< 1e-05 s⁻¹	3.81e-05 ± 1.3e-05 s⁻¹	–
U54A U56A	0.00022 ± 4e-05 s⁻¹	0.00224 ± 0.00048 s⁻¹	0.000706 ± 0.0002 s⁻¹	0.00887 ± 0.0017 s⁻¹	0.00712 ± 0.002 s⁻¹
U54C C67G	5.95e-05 ± 1.1e-05 s⁻¹	0.000519 ± 7.3e-05 s⁻¹	0.000179 ± 2.6e-05 s⁻¹	–	–

Variant	self-cleavage kobs at 40 uM GlcN6P (glucosamine-6-phosphate [1])	self-cleavage kobs at 640 uM GlcN6P (glucosamine-6-phosphate [2])	self-cleavage kobs at 160 uM GlcN6P (glucosamine-6-phosphate [3])	self-cleavage kobs at 10000 uM GlcN6P (glucosamine-6-phosphate [4])	self-cleavage kobs at 2500 uM GlcN6P (glucosamine-6-phosphate [5])
U55A C70G	3.74e-05 ± 7.5e-06 s⁻¹	0.000148 ± 1.6e-05 s⁻¹	0.000102 ± 1.2e-05 s⁻¹	0.000101 ± 9.9e-06 s⁻¹	0.000117 ± 1.2e-05 s⁻¹
U55C U69A	< 1e-05 s⁻¹	–	–	–	–
U47C C50A	< 1e-05 s⁻¹	–	–	–	–
U47G A52U U69G	4.05e-05 ± 1.5e-05 s⁻¹	–	–	3.79e-05 ± 1.3e-05 s⁻¹	–
U49C G63A C67G	< 1e-05 s⁻¹	–	–	–	–
U56G G59C	< 1e-05 s⁻¹	< 1e-05 s⁻¹	< 1e-05 s⁻¹	–	–
U55A C61U	< 1e-05 s⁻¹	–	< 1e-05 s⁻¹	–	–
C50G C58A G62C G63C C70A	4.49e-05 ± 1.7e-05 s⁻¹	–	–	–	–
A52U U54G	< 1e-05 s⁻¹	–	–	–	–
U49C C71G	< 1e-05 s⁻¹	–	< 1e-05 s⁻¹	< 1e-05 s⁻¹	–
C50U G59U	< 1e-05 s⁻¹	< 1e-05 s⁻¹	–	< 1e-05 s⁻¹	–
C50U G59C	< 1e-05 s⁻¹	< 1e-05 s⁻¹	< 1e-05 s⁻¹	< 1e-05 s⁻¹	< 1e-05 s⁻¹
U56A G66A	0.000167 ± 1.7e-05 s⁻¹	0.00117 ± 0.00021 s⁻¹	0.00039 ± 6.4e-05 s⁻¹	0.00718 ± 0.0011 s⁻¹	0.00253 ± 0.00043 s⁻¹
U54C C61A	< 1e-05 s⁻¹	–	–	< 1e-05 s⁻¹	–
A52C U56G	< 1e-05 s⁻¹	< 1e-05 s⁻¹	< 1e-05 s⁻¹	–	–
A53G C67A	0.000314 ± 3.3e-05 s⁻¹	0.00067 ± 0.00014 s⁻¹	–	0.00957 ± 0.0018 s⁻¹	0.000612 ± 0.00025 s⁻¹
U54G C70U	0.00112 ± 0.00013 s⁻¹	–	–	–	–
A53U U56A	0.000172 ± 2.1e-05 s⁻¹	0.00169 ± 0.0002 s⁻¹	0.000573 ± 8e-05 s⁻¹	0.00667 ± 0.00065 s⁻¹	0.00313 ± 0.00052 s⁻¹
G51C C68A	< 1e-05 s⁻¹	–	–	–	–
C50G G51C	< 1e-05 s⁻¹	–	< 1e-05 s⁻¹	< 1e-05 s⁻¹	< 1e-05 s⁻¹
A48U A52U C67A	< 1e-05 s⁻¹	–	–	< 1e-05 s⁻¹	–
U49A G62C	< 1e-05 s⁻¹	–	–	< 1e-05 s⁻¹	–
A52G C61U	< 1e-05 s⁻¹	–	< 1e-05 s⁻¹	–	< 1e-05 s⁻¹
C50G G62A	3.58e-05 ± 1.1e-05 s⁻¹	–	0.000128 ± 2.4e-05 s⁻¹	–	0.000168 ± 3.3e-05 s⁻¹
